Source: paper PMC4702128
Numbering of substitutions follows the chain as printed. No constants are given. Whether binding was seen depends on the method and setting. Binding seen in cells or lysates may run through a third protein. Some results given as binding are weak or reduced against the parent protein; the word gives no strength. Sequences can lack the tags named with a protein.

Tests used:
[1] = target: T1, FLAG-tagged MCAK (human (cDNA library from HEK 293T cells)) (UniProt Q99661); test: co-IP; FLAG M2 beads with lysates of transfected HEK 293T cells (M-PER, nocodazole 10 μg/ml), 1 h, 4 °C; western blot; in Figure 4A with or without co-expressed Aurora B
T1 sequence: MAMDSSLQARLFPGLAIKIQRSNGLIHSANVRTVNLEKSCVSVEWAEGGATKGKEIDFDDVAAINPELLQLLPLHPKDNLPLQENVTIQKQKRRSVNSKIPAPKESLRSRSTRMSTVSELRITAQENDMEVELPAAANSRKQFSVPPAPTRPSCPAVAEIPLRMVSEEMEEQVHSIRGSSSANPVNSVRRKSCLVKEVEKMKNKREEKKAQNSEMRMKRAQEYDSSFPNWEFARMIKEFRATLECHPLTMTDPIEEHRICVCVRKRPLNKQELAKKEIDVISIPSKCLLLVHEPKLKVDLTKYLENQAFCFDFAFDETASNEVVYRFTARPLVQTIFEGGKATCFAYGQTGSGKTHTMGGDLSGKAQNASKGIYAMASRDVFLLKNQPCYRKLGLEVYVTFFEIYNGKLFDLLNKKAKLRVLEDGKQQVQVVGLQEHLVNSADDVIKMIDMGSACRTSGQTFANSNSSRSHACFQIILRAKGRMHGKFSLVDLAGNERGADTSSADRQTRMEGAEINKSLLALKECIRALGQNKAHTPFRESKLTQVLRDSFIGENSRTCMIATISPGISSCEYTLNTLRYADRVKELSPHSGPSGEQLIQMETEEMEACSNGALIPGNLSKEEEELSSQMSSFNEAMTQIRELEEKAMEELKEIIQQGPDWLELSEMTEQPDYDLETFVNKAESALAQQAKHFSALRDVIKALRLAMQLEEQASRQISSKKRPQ

[2] = target: T1, FLAG-tagged MCAK (human (cDNA library from HEK 293T cells)); test: co-IP; as a2, FLAG-MCAK and HA-NuSAP, cells treated with 2 μM ZM447439 (Aurora B inhibitor) for 45 min
[3] = target: T2, FLAG-tagged NuSAP (nucleolar and spindle-associated protein) (human (cDNA library from HEK 293T cells)) (UniProt Q9BXS6); test: co-IP; FLAG M2 beads with lysates of transfected HEK 293T cells (M-PER, nocodazole 10 μg/ml), 1 h, 4 °C; western blot; in Figure 4A with or without co-expressed Aurora B
T2 sequence: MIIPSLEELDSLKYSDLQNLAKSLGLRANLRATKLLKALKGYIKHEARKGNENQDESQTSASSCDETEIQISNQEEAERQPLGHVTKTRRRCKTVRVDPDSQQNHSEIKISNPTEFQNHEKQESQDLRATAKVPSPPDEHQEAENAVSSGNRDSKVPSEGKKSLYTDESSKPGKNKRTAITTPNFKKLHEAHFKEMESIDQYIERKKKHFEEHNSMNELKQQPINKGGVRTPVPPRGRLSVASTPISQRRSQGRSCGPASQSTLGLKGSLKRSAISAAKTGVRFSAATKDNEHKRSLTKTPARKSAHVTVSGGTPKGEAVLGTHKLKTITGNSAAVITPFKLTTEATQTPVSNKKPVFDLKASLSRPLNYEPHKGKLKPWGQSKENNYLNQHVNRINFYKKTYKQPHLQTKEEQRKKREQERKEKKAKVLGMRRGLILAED

[4] = target: T3, MCAK, HA- or FLAG-tagged, as used in the mapping co-immunoprecipitation of Figure 2B (human (cDNA library from HEK 293T cells)) (UniProt Q99661); test: as above
T3 sequence: T1 sequence

B1: HA-tagged NuSAP (protein, UniProt Q9BXS6 1-441)
chain: T2 sequence
binding [1]: binds | binding [2]: no binding (condition: with 2 μM ZM447439 for 45 min)

B2: GFP-MCAK-His (protein, UniProt P70096 1-718)
chain: MESLPARLFPGLSIKIQRSNGLIHSANISTVNVEKSCVSVEWIEGGNTKGKEIDFDDVAAINPELLQLLPLHPKDNLPLQENVTVPKQKRRSVNSKIPAPKEGLRSRSTRMSTVPEVRIATQENEMEVELPVATNSRKQFSVATGLPRPSCPAMTELPLSMVSEEAEEQVHPTRSTSSANPARRKSCIVKEMEKMKNKREEKRAQNSEIRIKRAQEYDSSFPNWEFARMIKEFRVTIECHPLTLTDPTEEHRICVCVRKRPLNKQELAKKEIDVISVPSKCLLFVHEPKLKVDLTKYLENQAFCFDFAFDETASNEVVYRFTARPLVQTIFEGGKATCFAYGQTGSGKTHTMGGDLSGKSQNTSKGIYAMASRDVFLLKSQPRYRNLNLEVYVTFFEIYNGKVFDLLNKKAKLRVLEDSKQQVQVVGLQEYLVNCADDVIKMLNMGSACRTSGQTFANSNSSRSHACFQILLRAKGRLHGKFSLVDLAGNERGADTSSADRQTRMEGAEINKSLLALKECIRALGQNKAHTPFRESKLTQVLRDSFIGENSRTCMIAMISPGISSCEYTLNTLRYADRVKELSPHSGLSGEQPIQMETEEMEASSNGTSLAVNFKEEEELSSQMSSFNEAMSQIRELEERAMEELREIIQQGPGWLELSEMTDQPDYDLETFVNKAESALTQQTKHFSALREVIKALRVAMQLEEQASKQMNSKKRHQ
binding [3]: binds

B3: GFP-MCAK 5A-His (phospho-deficient MCAK 5A) (protein, UniProt P70096 1-718)
chain: B2 chain with S92A, S106A, S108A, S112A, S186A
binding [3]: binds

B4: GFP-MCAK 5E-His (phospho-mimicking MCAK 5E) (protein, UniProt P70096 1-718)
chain: B2 chain with S92E, S106E, S108E, S112E, S186E
binding [3]: binds

B5: NuSAP^delMCBD (NuSAP with amino acids 433-441 deleted from the C-terminus) (domain or fragment, UniProt Q9BXS6 1-432)
chain: MIIPSLEELDSLKYSDLQNLAKSLGLRANLRATKLLKALKGYIKHEARKGNENQDESQTSASSCDETEIQISNQEEAERQPLGHVTKTRRRCKTVRVDPDSQQNHSEIKISNPTEFQNHEKQESQDLRATAKVPSPPDEHQEAENAVSSGNRDSKVPSEGKKSLYTDESSKPGKNKRTAITTPNFKKLHEAHFKEMESIDQYIERKKKHFEEHNSMNELKQQPINKGGVRTPVPPRGRLSVASTPISQRRSQGRSCGPASQSTLGLKGSLKRSAISAAKTGVRFSAATKDNEHKRSLTKTPARKSAHVTVSGGTPKGEAVLGTHKLKTITGNSAAVITPFKLTTEATQTPVSNKKPVFDLKASLSRPLNYEPHKGKLKPWGQSKENNYLNQHVNRINFYKKTYKQPHLQTKEEQRKKREQERKEKKAKVLGM
binding [4]: no binding
